This is an account of results in patent publication EP4610267A1, “CYCLIC DINUCLEOTIDES AND CONJUGATES THEREOF WITH ANTIBODIES” (priority 2024, dated 2025).

For series [1], the system named is TROP2 expressing Bx-PC3 tumor xenograft. As to the kind of experiment: TROP2 expressing Bx-PC3 tumor xenograft model. It counts as in vivo, CB.17 SCID mice. As to conditions: single I.V. dose 5mg/kg on day 1 (Fig. 10). The procedure: Compound 3.3 was conjugated to the engineered light chain C110 and heavy chain C375 of anti-TROP2 mAb (mAb5), following the previously described method. The Bx-PC3 human pancreatic carcinoma cell line was obtained from American Type Culture Collection (ATCC®, CRL-1687™) and maintained in RPMI-1640 medium containing 10% fetal bovine serum, 2 mM glutamine, 100 units/mL penicillin G sodium, 100 µg/mL streptomycin sulfate, 25 µg/mL gentamicin, 10 mM HEPES, 0.075% sodium bicarbonate, and 1 mM sodium pyruvate. The tumor cells were grown in tissue culture flasks in a humidified incubator set at 37 °C and an atmosphere of 5% CO2 and 95% air. On the day of tumor implantation to female CB.17 SCID mice (Charles River Laboratories), the Bx-PC3 cells were harvested during the exponential growth phase and resuspended in phosphate-buffered saline (PBS) and 50% Matrigel™ (BD Biosciences) mixture at 1 × 10^8 cells/mL concentration. Tumors were initiated by subcutaneous implantation of 1 × 10^7 Bx-PC3 cells (in a 0.1 mL suspension) into the right flank of each test animal. Tumors were measured in two dimensions and tumor volumes were calculated from caliper measurements using formula (L × W^2)/2. […]

For another series, the system named is plasma cytokines. Put plainly: In vivo plasma cytokine induction after single i.v. injection (multiplex ELISA, Luminex). The following applies: single i.v. 5 mg/kg, Balb/C mice, 2, 4, 8 and 20 hours post-injection (Fig. 6, 7). The procedure:
Compound 3.3 was conjugated to the engineered light chain C110 and heavy chain C375 of anti-Her2 mAb (mAb3) as described above (mAb3-3.3). Furthermore, the compound was also conjugated to anti-Her2 mAb (mAb2) via inter-chain Cys (mAb2-3.3). A single intravenous injection of 5 mg/kg mAb2-3.3 (DAR 3.8) and 5 mg/kg mAb3-3.3 (DAR 3.6) was administered to Balb/C mice via tail vein injection. Blood samples were collected from the injected animals at 2, 4, 8, and 20 hours post-injection, and plasma cytokines were measured using multiplex ELISA (Luminex).
Compound 3.3 was conjugated to anti-TROP2 mAb4 via inter-chain Cys and to the engineered light chain C110 and heavy chain C375 of anti-TROP2 mAb5, as described above. […] Blood samples were collected from the injected animals at 2, 4, 8, and 20 hours post-injection, and plasma cytokines were measured using multiplex ELISA (Luminex).

For series [2], the system named is TROP2 expressing HCC1954 breast tumor xenograft. Put plainly: TROP2 expressing HCC1954 breast tumor xenograft model. In kind it is in vivo, SCID-beige mice. The procedure:
Compound 3.3 was conjugated to the engineered light chain C110 and heavy chain C375 of anti-TROP2 mAb (mAb5), following the previously described method. An animal study was conducted using a TROP2-expressing HCC1954 breast cancer xenograft mouse model, with animals being pair-matched when the tumor reached a volume of 100 - 150 mm^3 (designated as day 1). They were then injected with a single intravenous dose of 2.5 or 1 mg/kg of the anti-TROP2 mAb5-3.3 conjugate (DAR 3.6), 2.5 mg/kg of isotype mAb-3.3 conjugate (DAR 3.8), 5 mg/kg of mAb5, or PBS vehicle.
Compound 3.13 was conjugated to engineered light chain C110 and heavy chain C375 of anti-TROP2 mAb5 as described above. For in vivo testing in the HCC1954 breast cancer xenograft mouse model, female SCID-beige mice at 8 to 12 weeks of age (purchased from Charles River Lab) were used for implantation. HCC1954 cells (obtained from ATCC) were cultured in RPMI medium supplemented with 10% fetal bovine serum at 37°C in a humidified incubator with 5% CO2. On the day of implantation, 1 × 10^7 HCC1954 cells were re-suspended in 100µL RPMI1640 serum free media containing 50% Matrigel and implanted subcutaneously in the right flank. After implant, tumors were measured by caliper and mice were weighed two times per week. Tumors were measured in two dimensions and tumor volumes were calculated from caliper measurements using formula (L × W^2)/2. Animals were pair matched when tumor reached volume 100 - 150 mm^3 (designated as day 1) and injected with a single i.v. dose 1 and 0.4 mg/kg anti-TROP2 mAb5-3.13 (DAR 3.6), 5mg/kg unconjugated mAb5 or 1mg/kg isotype mAb-3.13 (DAR 3.8).

A short description of series [3]: In vivo payload CDN retention on mAb after i.v. injection (immunoprecipitation and LC-MS). The following applies: CD-1 nude mice, anti-TROP2 mAb5 conjugate.
The test system of series [4] is mouse and human cytokines in HCC1954 tumors. As to the kind of experiment: Intratumoral cytokines in TROP2 positive HCC1954 mouse model (qRT-PCR). In kind it is in vivo, CD-1 Nude mice. As to conditions: tumors collected 20 h post single i.v. dose 5mg/kg (Fig. 12). The procedure: Compound 3.3 was conjugated to engineered light chain C110 and heavy chain C375 of anti-TROP2 mAb (mAb5) as described previously. For in vivo testing in the TROP2 expressing HCC1954 breast cancer xenograft mouse model, female CD-1 Nude (CR - Crl:CD1-Foxn1nu) immunodeficient outbred mice (Charles River Laboratories) at 9 to 10 weeks of age were used. HCC1954 cells (ATCC®, CRL-2338™) were cultivated in RPMI-1640 medium containing 10% fetal bovine serum, 2 mM glutamine, 10 mM HEPES, 1 mM sodium pyruvate and 4.5g/L glucose. The cells were grown in a humidified incubator set at 37°C and an atmosphere of 5% CO2 and 95% air. On the day of tumor implantation, the HCC1954 cells were harvested during the exponential growth and resuspended in 50% Geltrex™ (ThermoFisher; A14132-02) prepared in Dulbecco's Phosphate - Buffered Saline (DPBS) at 1 × 10^7 cells/mL. […] Tumors were measured in three dimensions using digital calipers to monitor growth. […]
Tumors were collected 20 h post i.v., and immediately stored in RNAprotect® Tissue Reagent (Qiagen) untill further processing. […] Relative expression of mouse and human cytokines was measured by using Luna Universal One-Step RT-qPCR Kit (Promega) according to the manufacturer protocol. qRT-PCR was run on Light Cycler 480 II (Roche) with annealing time 60°C for all tested primers.

For series [5], the system named is TROP2 expressing Colo205 colon tumor xenograft. As to the kind of experiment: TROP2 expressing Colo205 colon tumor xenograft model. It counts as in vivo, CD-1 nude mice. The following applies: single i.v. dose 5mg/kg (Fig. 11). The procedure:
Compound 3.3 was conjugated to the engineered light chain C110 and heavy chain C375 of anti-TROP2 mAb (mAb5), following the previously described method. The COLO-205 human colon adenocarcinoma cell line was obtained from American Type Culture Collection (ATCC®, CCL-222™) and maintained in RPMI-1640 medium containing 10% fetal bovine serum, 2 mM glutamine, 10 mM HEPES, 1 mM sodium pyruvate and 4.5g/L glucose. The tumor cells were grown in tissue culture flasks in a humidified incubator set at 37°C and an atmosphere of 5% CO2 and 95% air. On the day of tumor implantation, the COLO205 cells were harvested during the exponential growth phase and resuspended in 50% Geltrex™ (ThermoFisher; A14132-02) prepared in Dulbecco's Phosphate - Buffered Saline (DPBS) at 6 × 10^7 cells/mL concentration. Tumors were initiated by subcutaneous implantation of 3 × 10^6 COLO205 cells (in a 0.1 mL suspension) into the right flank of female CD-1 nude mice (CR - Crl:CD1-Foxn1nu). Tumors were measured in two dimensions and tumor volumes were calculated using formula (L × W^2)/2. Animals were pair matched when tumor volumes reached 80-140 mm^3 (designated as day 1) and injected with a single i.v. dose of 5mg/kg of anti-TROP2 mAb5-3.3 (DAR 3.6), 5mg/kg isotype mAb-VAP-3.3 (DAR 3.8), 5mg/kg mAb5 or PBS vehicle.

B1: mAb5-3.3 (conjugate)
heavy: QVQLQQSGSELKKPGASVKVSCKASGYTFTNYGMNWVKQAPGQGLKWMGWINTYTGEPTYTDDFKGRFAFSLDTSVSTAYLQISSLKADDTAVYFCARGGFGSSYWYFDVWGQGSLVTVSSASTKGPSVFPLAPSSKSTSGGTAALGCLVKDYFPEPVTVSWNSGALTSGVHTFPAVLQSSGLYSLSSVVTVPSSSLGTQTYICNVNHKPSNTKVDKKV[letters of human IgG1 Fc with S375C (EU numbers) left out]
light: DIQLTQSPSSLSASVGDRVSITCKASQDVSIAVAWYQQKPGKAPKLLIYSASYRYTGVPDRFSGSGSGTDFTLTISSLQPEDFAVYYCQQHYITPLTFGAGTKVEIKRTCAAPSVFIFPPSDEQLKSGTASVVCLLNNFYPREAKVQWKVDNALQSGNSQESVTEQDSKDSTYSLSSTLTLSKADYEKHKVYACEVTHQGLSSPVTKSFNRGEC
Regarding B1, the “effect on tumor growth” value was “tumor regressions” in series [1], “tumor growth inhibition” in series [2] (single i.v. dose 1 mg/kg (Fig. 9)), “tumor regression” in series [2] (single i.v. dose 2.5 mg/kg (Fig. 9)) and “tumor regressions” in series [5]. Moreover, the plasma cytokine levels entry in the series with plasma cytokines is “significantly lower”. Besides, the “half-life for the warhead retention” value in series [3] (single i.v. bolus 5 mg/kg) was “exceeded 10 days”. In series [4], the “expression of mouse INFβ, IL6, RANTES and IP-10 and human IP10 and RANTES compared to controls” value is given as “statistically significant overexpression”.

B2: mAb5-3.13 (conjugate)
heavy: QVQLQQSGSELKKPGASVKVSCKASGYTFTNYGMNWVKQAPGQGLKWMGWINTYTGEPTYTDDFKGRFAFSLDTSVSTAYLQISSLKADDTAVYFCARGGFGSSYWYFDVWGQGSLVTVSSASTKGPSVFPLAPSSKSTSGGTAALGCLVKDYFPEPVTVSWNSGALTSGVHTFPAVLQSSGLYSLSSVVTVPSSSLGTQTYICNVNHKPSNTKVDKKV[letters of human IgG1 Fc with S375C (EU numbers) left out]
light: DIQLTQSPSSLSASVGDRVSITCKASQDVSIAVAWYQQKPGKAPKLLIYSASYRYTGVPDRFSGSGSGTDFTLTISSLQPEDFAVYYCQQHYITPLTFGAGTKVEIKRTCAAPSVFIFPPSDEQLKSGTASVVCLLNNFYPREAKVQWKVDNALQSGNSQESVTEQDSKDSTYSLSSTLTLSKADYEKHKVYACEVTHQGLSSPVTKSFNRGEC
In the case of B2, the “effect on tumor growth” value in series [2] (single i.v. dose 0.4 mg/kg (Fig. 14)) and in series [2] (single i.v. dose 1 mg/kg (Fig. 14)) was “induced regressions” in each case. In addition, in series [3] (single i.v. bolus […]), the “half-life for the warhead retention” value is “approximately 12 days”.
